Measured values published in the supplement of paper PMC11741623.
The list shows a part of the results. Interaction screen of human proteins with wild-type SARS-CoV-2 proteins by split-DHFR complementation in yeast, 1 µg/mL methotrexate. Value = fitness of the pair (three or more lineages) minus that of the viral protein without a human partner, on a scale set by negative (0) and fused positive (1) controls, mean of up to three cultures; higher = more likely to interact. Active = false discovery rate below 0.05 (one-sided t-test) in at least one culture. Nearly all pairs are not hits, and differences among them are mostly noise (correlation between cultures about 0.3); most hits were seen in one culture only. Human sequences are the Swiss-Prot entries looked up by gene name; the clone may be another isoform. NSP2 values were corrected by the authors for a growth advantage. Listed are human proteins with a hit and a random twelfth of the others.

Assays:
Assay in all cases: yeast fitness gain over the viral ORF with no human partner (scaled fitness); higher = more likely to interact
SARS-CoV-2 E = target: SARS-CoV-2 E
Procedure: (§1)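 Split mouse DHFR complementation in pooled diploid yeast: human ORFeome clones carry one fragment and viral ORFs the other; barcoded lineages compete in 1 µg/mL methotrexate and fitness is read by barcode sequencing in up to three cultures.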

SARS-CoV-2 M = target: SARS-CoV-2 M
Procedure: as §1

SARS-CoV-2 N = target: SARS-CoV-2 N
Procedure: as §1

SARS-CoV-2 NSP1 = target: SARS-CoV-2 NSP1
Procedure: as §1

SARS-CoV-2 NSP10 = target: SARS-CoV-2 NSP10
Procedure: as §1

SARS-CoV-2 NSP12 = target: SARS-CoV-2 NSP12
Procedure: as §1

SARS-CoV-2 NSP13 = target: SARS-CoV-2 NSP13
Procedure: as §1

SARS-CoV-2 NSP15 = target: SARS-CoV-2 NSP15
Procedure: as §1

SARS-CoV-2 NSP16 = target: SARS-CoV-2 NSP16
Procedure: as §1

SARS-CoV-2 NSP2 = target: SARS-CoV-2 NSP2
Procedure: as §1

SARS-CoV-2 NSP5 = target: SARS-CoV-2 NSP5
Procedure: as §1

SARS-CoV-2 NSP6 = target: SARS-CoV-2 NSP6
Procedure: as §1

SARS-CoV-2 NSP7 = target: SARS-CoV-2 NSP7
Procedure: as §1

SARS-CoV-2 NSP8 = target: SARS-CoV-2 NSP8
Procedure: as §1

SARS-CoV-2 NSP9 = target: SARS-CoV-2 NSP9
Procedure: as §1

SARS-CoV-2 ORF10 = target: SARS-CoV-2 ORF10
Procedure: as §1

SARS-CoV-2 ORF3A = target: SARS-CoV-2 ORF3A
Procedure: as §1

SARS-CoV-2 ORF3B = target: SARS-CoV-2 ORF3B
Procedure: as §1

SARS-CoV-2 ORF6 = target: SARS-CoV-2 ORF6
Procedure: as §1

SARS-CoV-2 ORF7A = target: SARS-CoV-2 ORF7A
Procedure: as §1

SARS-CoV-2 ORF7B = target: SARS-CoV-2 ORF7B
Procedure: as §1

SARS-CoV-2 ORF8 = target: SARS-CoV-2 ORF8
Procedure: as §1

SARS-CoV-2 ORF9B = target: SARS-CoV-2 ORF9B
Procedure: as §1

[1] = target: SARS-CoV-2 ORF9Bwu (the 73-codon ORF)
Procedure: as §1

SARS-CoV-2 S = target: SARS-CoV-2 S
Procedure: as §1

SARS-CoV-2 NSP14 = target: SARS-CoV-2 NSP14
Procedure: as §1

SARS-CoV-2 NSP4 = target: SARS-CoV-2 NSP4
Procedure: as §1

Measured: yeast fitness gain

B1: C6orf136, Q5SQH8 (protein)
chain: MYQPSRGAARRLGPCLRAYQARPQDQLYPGTLPFPPLWPHSTTTTSPSSPLFWSPLPPRLPTQRLPQVPPLPLPQIQALSSAWVVLPPGKGEEGPGPELHSGCLDGLRSLFEGPPCPYPGAWIPFQVPGTAHPSPATPSGDPSMEEHLSVMYERLRQELPKLFLQSHDYSLYSLDVEFINEILNIRTKGRTWYILSLTLCRFLAWNYFAHLRLEVLQLTRHPENWTLQARWRLVGLPVHLLFLRFYKRDKDEHYRTYDAYSTFYLNSSGLICRHRLDKLMPSHSPPTPVKKLLVGALVALGLSEPEPDLNLCSKP
inactive: SARS-CoV-2 E -0.0197 | SARS-CoV-2 M 0.0414 | SARS-CoV-2 N -0.0264 | SARS-CoV-2 NSP1 = -0.158 | SARS-CoV-2 NSP10 = -0.0426 | SARS-CoV-2 NSP12 = -0.00457 | SARS-CoV-2 NSP13 = 0.0603 | SARS-CoV-2 NSP15 = -0.0245 | SARS-CoV-2 NSP16 = 0.0236 | SARS-CoV-2 NSP2 = -0.123 | SARS-CoV-2 NSP5 = 0.00149 | SARS-CoV-2 NSP6 = -0.00592 | SARS-CoV-2 NSP7 = -0.121 | SARS-CoV-2 NSP8 = 0.00431 | SARS-CoV-2 NSP9 = -0.0937 | SARS-CoV-2 ORF10 = 0.000914 | SARS-CoV-2 ORF3A -0.0323 | SARS-CoV-2 ORF3B -0.00863 | SARS-CoV-2 ORF6 = 0.0162 | SARS-CoV-2 ORF7A -0.0267 | SARS-CoV-2 ORF7B -0.00534 | SARS-CoV-2 ORF8 = -0.00115 | SARS-CoV-2 ORF9B 0.00115 | [1] -0.137 | SARS-CoV-2 S 0.103

B2: RPA4, Q13156 (protein)
chain: MSKSGFGSYGSISAADGASGGSDQLCERDATPAIKTQRPKVRIQDVVPCNVNQLLSSTVFDPVFKVRGIIVSQVSIVGVIRGAEKASNHICYKIDDMTAKPIEARQWFGREKVKQVTPLSVGVYVKVFGILKCPTGTKSLEVLKIHVLEDMNEFTVHILETVNAHMMLDKARRDTTVESVPVSPSEVNDAGDNDESHRNFIQDEVLRLIHECPHQEGKSIHELRAQLCDLSVKAIKEAIDYLTVEGHIYPTVDREHFKSAD
inactive: SARS-CoV-2 E 0.0302 | SARS-CoV-2 M -0.0141 | SARS-CoV-2 N -0.0293 | SARS-CoV-2 NSP1 = 0.0765 | SARS-CoV-2 NSP10 = 0.0583 | SARS-CoV-2 NSP12 = 0.0158 | SARS-CoV-2 NSP13 = 0.0237 | SARS-CoV-2 NSP14 = -0.0428 | SARS-CoV-2 NSP15 = 0.101 | SARS-CoV-2 NSP16 = 0.057 | SARS-CoV-2 NSP4 = -0.0459 | SARS-CoV-2 NSP5 = -0.0099 | SARS-CoV-2 NSP6 = -0.022 | SARS-CoV-2 NSP7 = 0.073 | SARS-CoV-2 NSP8 = 0.0221 | SARS-CoV-2 NSP9 = 0.0418 | SARS-CoV-2 ORF10 = 0.0421 | SARS-CoV-2 ORF3A 0.0176 | SARS-CoV-2 ORF3B 0.0314 | SARS-CoV-2 ORF6 = 0.0338 | SARS-CoV-2 ORF7A 0.0266 | SARS-CoV-2 ORF7B 3.5e-05 | SARS-CoV-2 ORF8 = -0.146 | SARS-CoV-2 ORF9B -0.0178 | [1] 0.0146 | SARS-CoV-2 S 0.0635
active: SARS-CoV-2 NSP2 = 0.356

B3: PDPK1, O15530 (protein)
chain: MARTTSQLYDAVPIQSSVVLCSCPSPSMVRTQTESSTPPGIPGGSRQGPAMDGTAAEPRPGAGSLQHAQPPPQPRKKRPEDFKFGKILGEGSFSTVVLARELATSREYAIKILEKRHIIKENKVPYVTRERDVMSRLDHPFFVKLYFTFQDDEKLYFGLSYAKNGELLKYIRKIGSFDETCTRFYTAEIVSALEYLHGKGIIHRDLKPENILLNEDMHIQITDFGTAKVLSPESKQARANSFVGTAQYVSPELLTEKSACKSSDLWALGCIIYQLVAGLPPFRAGNEYLIFQKIIKLEYDFPEKFFPKARDLVEKLLVLDATKRLGCEEMEGYGPLKAHPFFESVTWENLHQQTPPKLTAYLPAMSEDDEDCYGNYDNLLSQFGCMQVSSSSSSHSLSASDTGLPQRSGSNIEQYIHDLDSNSFELDLQFSEDEKRLLLEKQAGGNPWHQFVENNLILKMGPVDKRKGLFARRRQLLLTEGPHLYYVDPVNKVLKGEIPWSQELRPEAKNFKTFFVHTPNRTYYLMDPSGNAHKWCRKIQEVWRQRYQSHPDAAVQ
inactive: SARS-CoV-2 E -0.00478 | SARS-CoV-2 M -0.19 | SARS-CoV-2 N 0.00866 | SARS-CoV-2 NSP1 = -0.0212 | SARS-CoV-2 NSP10 = 0.0695 | SARS-CoV-2 NSP12 = -0.0203 | SARS-CoV-2 NSP13 = 0.0744 | SARS-CoV-2 NSP14 = -0.336 | SARS-CoV-2 NSP15 = -0.00518 | SARS-CoV-2 NSP16 = -0.437 | SARS-CoV-2 NSP2 = -0.0872 | SARS-CoV-2 NSP4 = -0.127 | SARS-CoV-2 NSP5 = 0.0322 | SARS-CoV-2 NSP6 = 0.114 | SARS-CoV-2 NSP7 = -0.0631 | SARS-CoV-2 NSP8 = 0.00841 | SARS-CoV-2 NSP9 = -0.0855 | SARS-CoV-2 ORF10 = -0.0618 | SARS-CoV-2 ORF3A -0.135 | SARS-CoV-2 ORF3B 0.0702 | SARS-CoV-2 ORF6 = -0.0255 | SARS-CoV-2 ORF7A 0.0182 | SARS-CoV-2 ORF7B -0.0475 | SARS-CoV-2 ORF8 = 0.0428 | SARS-CoV-2 ORF9B -0.0181 | [1] -0.0405 | SARS-CoV-2 S 0.0415
